Read counts are not given, so values of variants with three or more changes are uncertain.
B1: LINE1-mini (parent)
chain: GGCAGAGCUCAACACAGCGUGGCAAAGUGGCUGUGGCUAGACUGCC

Variants of: B1
Assay: self-cleavage, relative activity (ratio to wild type); higher = more cleavage; in vitro, sequencing; the parent is a self-cleaving ribozyme

Variant | self-cleavage
A11G G21U C37G | 0
C10U G17A U20C G40U | 0.02
A11G C15A U34A G35C U38G | 0.01
A11U C15U C45A | 0.01
A11G C15G A39U | 0.02
A11G A12G G17A A26G | 0.01
A11G A14C C18A C37A U43C | 0
A11C C13G C15U C31G A41C | 0.01
A11C C15U G17C | 0.02
A11U A26C G30A | 0.13
A11G G17U U32G C46U | 0.01
A11C G17U G22C A24G G40A | 0
A11C A14U A24U U28C | 0.01
A11U A16G A26U G27U | 0.01
A11G G36A A39G G44A | 0.01
A11G C13G A14G G19C A26C U28G | 0.03
A11U C13A C18A | 0.04
A11G G29A G30U | 0.1
C10U G17C C23U G33A U38G A41G C42G | 0.04
A11C G27U A41G G44A | 0.04
A11C G30U C31U C37U U38A | 0.01
A11G A16C U20A A24U | 0
A11U A14G C46A | 0.03
A11C G19A U28A G44U | 0.02

Variant | self-cleavage
A11C A12G G21C A25G | 0.02
A11U A14C C42G | 0
A11G G40U G44A C45U | 0.01
A11G C23U G29C | 0
A11U A24U U34G | 0.02
A11C G36A C42U | 0.02
C10U U34A A39C | 0.03
A11C G40U C42A | 0
A11G G33U A39U | 0.01
A11G C15A G17U | 0.03
C10U G17U C31U | 0.24
C10U G22A G44U | 0.09
A11C C13G C23G U38G | 0
C10U U20A A39G G40U | 0.02
A11G G21U U28C C37U | 0.01
A11C C31A G35C | 0.01
A11C C18A U34G U38A G40A | 0.01
A11C G30U G36C C37U | 0.01
C10U G27A G40A C46A | 0.01
A11C C15U G40U | 0.02
A11C G22U A26U G30U C45A | 0.01
A11U C15U C37A U38G | 0
A11G C13U C15G | 0.01
A11C A24C G30A | 0.03

Variant | self-cleavage
A11C C13A G22C C31A G35C | 0
A11G G40U C45A | 0
A11C U20C G40C | 0.02
A11C G29A U34A G40U | 0.03
C10U G29U A39U | 0.65
C10U G29C C31U A39U | 1.7
A11G A24G A26U G29U U38G A41U | 0
C10U U38A U43A | 0.03
C10U G27C C37A | 0.02
A11U C15A G22U | 0.01
C10U U34A C45G | 0.05
A11G C15U G21C G30C C42A | 0
A11U A12U A24G G36A | 0.02
C10U G17U C23A | 0.05
C10U G19A C31A | 1.36
A11C A39C A41G U43A | 0.04
A11C G35A C37U | 0.02
A11G A12U U28A | 0.01
A11C C13G G17U G19A G22U A26G | 0.01
C10U G29A G33C U34A | 0.02
A11G C13U G29U C31G | 0
A11C A16G G17A C37U G44C | 0.02
C10U G44U C46U | 0.03
A11G C18G G27U G44A | 0.01

Variant | self-cleavage
A11C A12U A25C C31A U38A | 0.01
A11U A16C A26U | 0.02
A11U C13A A26C U34C A41C | 0
C10U G22U G27U | 0.2
A11C C18A A26G G36A G40U A41U | 0.01
A11U C15G C37U | 0.01
C10U G19A A41U U43A | 0.05
A11G C15U G19U G44A | 0.03
A11U C15G G21A | 0.03
A11G C15A C18A | 0.03
A11U A14G A26G A39C C46A | 0.06
A11C G19C C37G | 0.01
A11U C13U A26U C46A | 0.05
A11U A41U C45G | 0.05
A11C A16G G35A G36U | 0.01
C10U G19A A41U | 0.04
A11G G22U G30C U32A U34A | 0
A11G C18A G22C G27A G35C | 0.64
A11G A25U U32C | 0.01
C10U G33U U34G | 0.05
A11C C23A A25G | 0.02
A11U A24G C42A | 0.03
A11G G22U C31U U34G | 0.02
A11G A14C U20A | 0

Variant | self-cleavage
A11C C18A G30U | 0.09
A11C G17A G33C | 0.02
A11G C37A G40U | 0.07
A11U C13G U34G | 0.02
A11U A16U A25C U38C G44A | 0
A11U C13U C42G | 0.02
A11G G21A A25G | 0
A11G G21C A24U A25U G33A C37U A39C | 0
A11U A24U G44A | 0.01
A11C G17U G19A | 0.02
A11U A16G U28G U38A | 0
A11C U32A U38C G40C U43A | 0.01
A11G G33C C42A | 0.01
C10U G27U C31G | 0.13
A11C C18A G36U | 0.05
A11U A12G C45G | 0
A11G A16C U34C C46U | 0.01
A11C C13G A16U G21A U43G | 0
A11U C13G C18G | 0.02
A11G A24G G40A | 0.02
C10U G19C G44U | 0.02
A11C C18G G22U G35C G36C A41U | 0
A11U C15A C45G | 0.02
C10U G21U A41G | 0.02

Variant | self-cleavage
A11U A12U C15A C31U C45U | 0.01
A11U C15A G21A A25U G33U G44A | 0.04
A11C A12G G21U G29U | 0.02
A11U A26G A39U | 0.01
A11C A24G A25C G30A C37A A39C | 0.01
C10U G17U G19A A25G G40A G44C | 0.02
C10U G19A C23U A24C A41G | 0.09
A11G C18A C23A U28A U43C | 0
A11G G27C U28C | 0.01
C10U G21C G44C | 0.14
A11U A16C A24G C46A | 0.02
A11G G33C C45A | 0.02
A11G A14U U28A U32G | 0.01
A11C C13A C18U | 0.01
A11C A14U G36A C37U | 0.03
A11G C13A G29U U34A G36C | 0.03
A11C C13U G44U | 0
A11U C15A A26C G27A U28G G30U | 0.01
A11U A12G A16G G27U A39C G40U C42G G44U C45A | 0
A11U A24C U28C G29A | 0.08
A11C G36U U43A | 0
A11C G27U G33U C37G | 0
A11C A14C U20C C37A | 0.02
A11C C15A A16C U43A | 0.04

Variant | self-cleavage
A11C C18U G36A U38G | 0.02
A11C C18A C45A | 0.02
A11C A12G G17A G21U A39U | 0
A11C C15G A25C G30A C45U C46A | 0
A11G G21U G22U C37A U43C | 0
A11U A14U C15G G30A A41U | 0.01
A11C C31G U38A G40A | 0
A11C A24C A25U | 0.04
A11C A16G G19A | 0.02
C10U G33A A41C | 0.03
A11G G19U C31U U38A U43A | 0.01
C10U G21C G22C U28G G33A | 0.13
A11C G17U A39C | 0.02
A11G G29U G30U C46A | 0.03
A11G G33C G40C G44U | 0.02
A11U A12U C13A C15G | 0.02
C10U G17U C46U | 0.09
C10U G29U G30U | 0.3
A11C A25U C45A | 0.01
A11G U20G C42A | 0.01
C10U G29A U32C | 0.02
A11G A14C G17C | 0.04
A11C C23A U43A G44U | 0.01

Reference: the RNAGym collection of RNA variant scans (doi:10.7554/elife.90254)
